According to publication PMC4336329 (PLoS ONE, 2015):
Hit rate of the full screen: of about 310,000 compounds, about 2,200 (0.71%) showed an effect of 50% or more. The effect is printed as a negative number. This is one part of the list.

These compounds were tested against human ether-à-go-go-related gene (hERG) potassium channel (human, UniProt Q12809) (assay: primary screen, population patch clamp on CHO cells stably expressing hERG).
Chain of human ether-à-go-go-related gene (hERG) potassium channel (Q12809 whole entry, looked up): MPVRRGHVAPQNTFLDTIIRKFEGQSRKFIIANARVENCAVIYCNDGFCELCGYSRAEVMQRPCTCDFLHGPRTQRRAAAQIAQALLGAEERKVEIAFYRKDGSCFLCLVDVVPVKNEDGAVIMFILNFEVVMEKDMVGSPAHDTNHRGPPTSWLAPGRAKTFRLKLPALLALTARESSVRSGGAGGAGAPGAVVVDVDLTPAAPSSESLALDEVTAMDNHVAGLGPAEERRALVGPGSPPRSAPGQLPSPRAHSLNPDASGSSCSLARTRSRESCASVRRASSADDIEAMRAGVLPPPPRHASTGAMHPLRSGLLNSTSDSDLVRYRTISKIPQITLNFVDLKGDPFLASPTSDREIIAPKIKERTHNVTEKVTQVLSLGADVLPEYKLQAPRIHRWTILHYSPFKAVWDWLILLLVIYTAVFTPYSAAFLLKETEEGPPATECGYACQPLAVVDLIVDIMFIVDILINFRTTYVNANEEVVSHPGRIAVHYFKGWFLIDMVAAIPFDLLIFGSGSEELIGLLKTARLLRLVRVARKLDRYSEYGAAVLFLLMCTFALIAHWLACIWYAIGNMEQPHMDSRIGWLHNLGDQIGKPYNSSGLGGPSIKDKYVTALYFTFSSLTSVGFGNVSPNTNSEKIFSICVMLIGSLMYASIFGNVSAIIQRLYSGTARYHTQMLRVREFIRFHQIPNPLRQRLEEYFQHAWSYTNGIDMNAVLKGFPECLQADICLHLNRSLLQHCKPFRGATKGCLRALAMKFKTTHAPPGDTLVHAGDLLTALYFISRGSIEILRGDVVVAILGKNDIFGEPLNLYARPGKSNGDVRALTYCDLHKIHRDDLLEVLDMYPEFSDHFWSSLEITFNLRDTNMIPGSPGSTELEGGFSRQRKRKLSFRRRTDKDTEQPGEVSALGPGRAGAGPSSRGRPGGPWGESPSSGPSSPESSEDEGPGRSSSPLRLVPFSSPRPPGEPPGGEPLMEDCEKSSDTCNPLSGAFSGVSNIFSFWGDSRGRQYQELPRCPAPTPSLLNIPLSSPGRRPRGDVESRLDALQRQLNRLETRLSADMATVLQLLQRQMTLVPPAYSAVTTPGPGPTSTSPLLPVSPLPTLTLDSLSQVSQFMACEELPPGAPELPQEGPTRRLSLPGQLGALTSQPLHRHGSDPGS
`COc1ccc(CCC(=O)NCCS(=O)(=O)N2CCN(c3ccccc3)CC2)cc1` was tested, and the “hERG current change (%, negative = inhibition) at 1uM” value was 2.17%.
In the case of `COC(=O)c1c(S(N)(=O)=O)c2ccccc2n1C`, the “hERG current change (%, negative = inhibition) at 1uM” value was 7.76%.
For `O=C(CNC(=O)c1ccc(Cl)cc1)c1ccccc1`, the “hERG current change (%, negative = inhibition) at 1uM” value was 2.38%.
In the case of `CN1CCC(=NNc2ncnc3sc4c(c23)CCCC4)CC1`, the “hERG current change (%, negative = inhibition) at 1uM” value was 14.6%.
In the case of `Cc1cccc(NC(=O)C2CC(O)CN2C(=O)Oc2ccccc2)c1` (stereo not drawn), the “hERG current change (%, negative = inhibition) at 1uM” value was 25.1%.
In the case of `O=C(Cc1ccccc1)O/N=C1\CCCc2ccccc21`, the “hERG current change (%, negative = inhibition) at 1uM” value was 13.1%.
In the case of `CC(C)C12CN3CCN(CC(C3)/C1=N\NC(=O)Nc1ccccc1)C2`, the “hERG current change (%, negative = inhibition) at 1uM” value was 3.99%.
`Cc1c(NS(=O)(=O)c2ccc(N3CCCCC3)c([N+](=O)[O-])c2)c(=O)n(-c2ccccc2)n1C` was tested, and the “hERG current change (%, negative = inhibition) at 1uM” value was 7.17%.
In the case of `COc1ccc(NC(C)=[N+](C)CCNS(=O)(=O)c2ccc(Cl)cc2)cc1.[I-]`, the “hERG current change (%, negative = inhibition) at 1uM” value was -59.5%.
For `CCOc1ccc(N2C(=O)C(Cl)=C(N3CCOCC3)C2=O)cc1`, the “hERG current change (%, negative = inhibition) at 1uM” value was 12.6%.
In the case of `COc1ccc(-c2nnc(SCC(=O)N/N=C/c3ccccc3C(=O)O)n2-c2ccccc2)cc1`, the “hERG current change (%, negative = inhibition) at 1uM” value was 13.4%.
For `CCN(c1ccccc1)S(=O)(=O)c1ccc(Cl)c(C(=O)NCC2CCCO2)c1` (stereo not drawn), the “hERG current change (%, negative = inhibition) at 1uM” value was 2.1%.
With `COC(=O)c1cc(NC2c3ccccc3C(=O)N2CCN2CCOCC2)cc(C(=O)OC)c1` (stereo not drawn) the “hERG current change (%, negative = inhibition) at 1uM” value was 9.2%.
In the case of `COc1ccc(C(C(=O)NC2CCCC2)N(C(=O)c2snc(C(N)=O)c2N)c2ccccc2OC)cc1OC` (stereo not drawn), the “hERG current change (%, negative = inhibition) at 1uM” value was 8.79%.
With `CCn1c(=O)c([N+](=O)[O-])c(Cl)c2ccccc21` the “hERG current change (%, negative = inhibition) at 1uM” value was 19.1%.
In the case of `C/C=C/Cn1c(Br)nc2c1c(=O)n(C)c(=O)n2C`, the “hERG current change (%, negative = inhibition) at 1uM” value was 10.7%.
`CC1Sc2ccc(S(=O)(=O)NCc3ccccc3)cc2NC1=O` (stereo not drawn) was tested, and the “hERG current change (%, negative = inhibition) at 1uM” value was 4%.
In the case of `CC1CCCC(C)N1C(=O)CSc1nnc(NC(=O)Cc2cccs2)s1` (stereo not drawn), the “hERG current change (%, negative = inhibition) at 1uM” value was 5.08%.
For `COC(=O)C1(Cc2ccc(O)cc2)OC(=O)C(O)=C1c1ccc(O)cc1` (stereo not drawn), the “hERG current change (%, negative = inhibition) at 1uM” value was 8.74%.
For `O=C(Nc1ccccc1)Nc1ccc(Oc2cccnc2)nc1`, the “hERG current change (%, negative = inhibition) at 1uM” value was 0.586%.
With `CC1(C)CC2CC(C)(CN2C(=O)NC(=O)c2ccccc2)C1` (stereo not drawn) the “hERG current change (%, negative = inhibition) at 1uM” value was 1.21%.
`CNc1nc(N)nc(-c2cc(Cl)ccc2OC)n1` was tested, and the “hERG current change (%, negative = inhibition) at 1uM” value was 13.1%.
For `Cc1ccc(CSc2nc3ccncc3[nH]2)cc1`, the “hERG current change (%, negative = inhibition) at 1uM” value was -12.6%.
For `COc1ccccc1NC(=O)NCc1ccco1`, the “hERG current change (%, negative = inhibition) at 1uM” value was 17.4%.
In the case of `CN(C)c1cccc(C(=O)OCC(=O)NCc2ccco2)c1`, the “hERG current change (%, negative = inhibition) at 1uM” value was 4.71%.
`CCn1c(=O)cc(SCC(=O)Nc2cccc(C)n2)c2ccccc21` was tested, and the “hERG current change (%, negative = inhibition) at 1uM” value was 11.4%.
With `COc1ccc(-c2cc(-c3nnc(-c4ccncc4)o3)c3ccccc3n2)cc1` the “hERG current change (%, negative = inhibition) at 1uM” value was 4.1%.
`O=C(NCc1ccco1)c1ccc(COc2ccccc2Cl)cc1` was tested, and the “hERG current change (%, negative = inhibition) at 1uM” value was 2.96%.
In the case of `CC(=O)N1CCN(c2ccc(NC(=O)c3cc4ccccc4o3)cc2)CC1`, the “hERG current change (%, negative = inhibition) at 1uM” value was 3.82%.
With `COc1ccc(-n2nnc3c(=O)n(Cc4cc(C)ccc4C)cnc32)cc1` the “hERG current change (%, negative = inhibition) at 1uM” value was -2.97%.
In the case of `COc1ccc(-n2c(SCC(=O)NNC(=O)c3ccccc3C)nnc2-c2ccncc2)cc1`, the “hERG current change (%, negative = inhibition) at 1uM” value was -1.64%.
In the case of `COc1ccc(Cl)cc1NC(=O)CSc1nnc(COc2ccccc2)n1C`, the “hERG current change (%, negative = inhibition) at 1uM” value was -12.1%.
In the case of `Cc1cc(C)n2nc(C(=O)NCc3ccco3)cc2n1`, the “hERG current change (%, negative = inhibition) at 1uM” value was 4.66%.
In the case of `COC(=O)c1ccc(Oc2nc(C)cc(Oc3ccccc3)n2)cc1`, the “hERG current change (%, negative = inhibition) at 1uM” value was 3.11%.
For `CCSC1=C(C#N)C(c2ccc3c(c2)OCO3)C2=C(CCCC2=O)N1` (stereo not drawn), the “hERG current change (%, negative = inhibition) at 1uM” value was -2.35%.
With `Nc1nc(-c2ccc(S(=O)(=O)N3CCCCC3)cc2)cs1` the “hERG current change (%, negative = inhibition) at 1uM” value was 8.23%.
`CN(C)S(=O)(=O)Oc1ccc(C(=O)Nc2ccc([N+](=O)[O-])cc2)cc1` was tested, and the “hERG current change (%, negative = inhibition) at 1uM” value was -0.426%.
`Cc1ccccc1Nc1nc(N)nc(CN(C)c2ccccc2)n1` was tested, and the “hERG current change (%, negative = inhibition) at 1uM” value was 5.23%.
For `CN(CC(=O)Nc1ccc(N2CCOCC2)cc1)C(=O)C12CC3CC(CC(C3)C1)C2`, the “hERG current change (%, negative = inhibition) at 1uM” value was -0.85%.
With `COC(=O)c1ccc(N2C(=O)CC(N3CCOCC3)C2=O)cc1` (stereo not drawn) the “hERG current change (%, negative = inhibition) at 1uM” value was 7.77%.
`CN(Cc1ccc(Cl)cc1)C(=O)CNC(=O)C12CC3CC(CC(C3)C1)C2` was tested, and the “hERG current change (%, negative = inhibition) at 1uM” value was -2.83%.
In the case of `Cc1ccc(CNS(=O)(=O)c2ccc(Br)s2)cc1`, the “hERG current change (%, negative = inhibition) at 1uM” value was 25.6%.
In the case of `O=C(COc1ccc(-c2nnco2)cc1)NC1CCCc2ccccc21` (stereo not drawn), the “hERG current change (%, negative = inhibition) at 1uM” value was -16%.
For `CC(C)(C)c1cnnn1-c1cccc([N+](=O)[O-])c1`, the “hERG current change (%, negative = inhibition) at 1uM” value was 12%.
With `O=C(O)c1sccc1S(=O)(=O)N1CCOCC1` the “hERG current change (%, negative = inhibition) at 1uM” value was 15.1%.
With `Cc1cccc(N(C)C(=O)c2cc3c(=O)[nH]c4ccc(C)cc4c3s2)c1` the “hERG current change (%, negative = inhibition) at 1uM” value was 9.07%.
In the case of `CS(=O)(=O)N1CCn2c1nc1ccccc12`, the “hERG current change (%, negative = inhibition) at 1uM” value was 8.88%.
`CC(=O)c1ccc(OCCCOc2cccc3cccnc23)cc1` was tested, and the “hERG current change (%, negative = inhibition) at 1uM” value was 13.7%.
For `FC(F)(F)c1ccc(/C=N/N2CCN(Cc3ccccc3)CC2)cc1`, the “hERG current change (%, negative = inhibition) at 1uM” value was 11.1%.
With `O=C(CN(Cc1ccccc1)C(=O)CNS(=O)(=O)c1ccc(F)cc1)NCc1ccco1` the “hERG current change (%, negative = inhibition) at 1uM” value was -11.8%.
With `Cc1cc(NC(=O)CN2CC(C)OC(C)C2)n(-c2nc3ccccc3s2)n1` (stereo not drawn) the “hERG current change (%, negative = inhibition) at 1uM” value was 13.6%.
For `COc1ccc(OC(C)C(=O)N2CCN(c3ccccn3)CC2)cc1` (stereo not drawn), the “hERG current change (%, negative = inhibition) at 1uM” value was 3.12%.
`COc1cc(C(=O)N2CCN(Cc3ccccc3C(F)(F)F)CC2)cc(OC)c1OC` was tested, and the “hERG current change (%, negative = inhibition) at 1uM” value was 1.68%.
In the case of `Cc1ccc(OCc2cnc(Cl)s2)c(C)c1`, the “hERG current change (%, negative = inhibition) at 1uM” value was 15%.
With `CCCCCOc1ccc(NC(=O)c2cc(SC)ccc2Cl)cc1` the “hERG current change (%, negative = inhibition) at 1uM” value was 12.1%.
With `O=C(c1ccc(Sc2ccc(F)cc2)c([N+](=O)[O-])c1)N1CCOCC1` the “hERG current change (%, negative = inhibition) at 1uM” value was -0.641%.
With `COc1cccc(NC(=O)CN(C)C(=O)c2ccc3c(c2)CC(c2ccccc2)OC3=O)c1` (stereo not drawn) the “hERG current change (%, negative = inhibition) at 1uM” value was 0.473%.
